Experimental data published in PubChem BioAssay AID1963850 (Molecular Pharmacology Branch, DTP, NCI, 2024).
Some entries of the source have several records that differ or are many. This list holds those alone. An entry can have further records. The values listed for one entry are repeats in other runs, samples, wells, individuals or studies. A date in brackets names the month of the test.

Test system: 192522-019-R-J2-PDC complex tumor spheroid viability
Experiment: Anticancer human tumor 192522-019-R-J2-PDC patient-derived colon adenocarcinoma cell line growth inhibition [POLQ]
Conditions: stronger effect = lower value
Method: Multicellular complex tumor spheroid response to Polymerase (POL) inhibitors (novobiocin, ART-558, RP6685) in combination with a variety of drugs and investigational agents in selected tumor cell lines
The POL inhibitors (novobiocin, ART-558, and RP6685) were evaluated both individually and in combination with standard of care and investigational anticancer small molecules within a complex spheroid model of solid tumors. . Complex spheroids include a stromal component modeled by human endothelial cells (HUVEC) and fibroblasts modeled by human mesenchymal stem cells (MSCs). The concentration ranges selected for each drug and investigational agent were based upon clinically achievable concentrations if the clinical Cmax of the agent was known.
Compounds. The drugs and investigational agents: novobiocin (NSC847541), ART-558 (NSC835418), RP-6685 (NSC848927), peposertib (NSC802822), ceralasertib (NSC780249), elimusertib (NSC800525), camonsertib (NSC841442), AZD-1390 (NSC803789), olaparib (NSC753686), talazoparib (NSC767125), rucaparib (NSC756644), sotorasib (NSC818433), MRTX-1133 (NSC836407), SN-38 (NSC673596), topotecan (NSC609699), epotoside (NSC141540), doxorubicin (NSC123127), gemcitabine (NSC613327), 5-fluorouracil (NSC19893), paclitaxel (NSC125973), vemurafenib (NSC761431), MSA-2 (NSC828583), SN-011 (NSC837082), adavosertib (NSC754352), prexasertib (NSC758257), carboplatin (NSC241240) and oxaliplatin (NSC266046), were obtained from the National Cancer Institute (NCI) Developmental Therapeutics Program Chemical Repository (21). The FDA-approved anticancer drug set is available from the Developmental Therapeutics Program at https://dtp.cancer.gov/organization/dscb/obtaining/. […] If the clinical Cmax for an agent had not been determined, the highest concentration tested was 10 microM, except for SN-38, which was tested at a high concentration of 1 microM. […]
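Also: spheroids exposed to drugs for seven days before reading; 100% = DMSO vehicle control viability in luminescence.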

SMILES | viability, T/C (compound alone 0.316 µM) | viability, T/C (compound alone 0.01 µM)
COc1cc(C2c3cc4c(cc3C(OC3OC5COC(C)OC5C(O)C3O)C3COC(=O)C23)OCO4)cc(OC)c1O (stereo not drawn) | 90%, 98.4% [2023-10] and 117% [2023-11] | 
COc1cccc(OCCCN)c1-c1cc(Nc2cnc(C#N)cn2)n[nH]1 |  | 60% [2023-10] and 86.9%, 82% [2023-11]
CCc1c2c(nc3ccc(O)cc13)-c1cc3c(c(=O)n1C2)COC(=O)[C@]3(O)CC |  | 51.5%, 64.6% [2023-10] and 78.7% [2023-11]
